In publication PMC9911399, “Two distinct binding modes provide the RNA-binding protein RbFox with extraordinary sequence specificity”:
Positions count from the first letter of the chain named. This is one part of the list.

T1: RBFOX1 RRM (Homo sapiens, UniProt Q9NWB1 109-208)
T1 sequence: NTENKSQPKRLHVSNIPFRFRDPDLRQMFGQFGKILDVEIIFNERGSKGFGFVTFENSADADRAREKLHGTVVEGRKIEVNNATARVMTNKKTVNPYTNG

B1: AAUUGCA (DNA:RNA)
RNA: GGGAGACCGGAAUUCAGAUUGUCCAAUUGCAUUAAAUCCCGUCGUAGCCACCA
DNA 1: CAATCTGAATTCCGGTCTCCC
DNA 2: TGGTGGCTACGACGGGATT
B2: UAAAGUU (DNA:RNA)
RNA: B1 RNA with A25U, U27A, U28A, C30U, A31U
DNA 1: CAATCTGAATTCCGGTCTCCC
DNA 2: TGGTGGCTACGACGGGATT
B3: CUGCUCU (DNA:RNA)
RNA: B1 RNA with A25C, A26U, U27G, U28C, G29U, A31U
DNA 1: CAATCTGAATTCCGGTCTCCC
DNA 2: TGGTGGCTACGACGGGATT
B4: AUCGAGG (DNA:RNA)
RNA: B1 RNA with A26U, U27C, U28G, G29A, C30G, A31G
DNA 1: CAATCTGAATTCCGGTCTCCC
DNA 2: TGGTGGCTACGACGGGATT
B5: AUGUAGU (DNA:RNA)
RNA: B1 RNA with A26U, U27G, G29A, C30G, A31U
DNA 1: CAATCTGAATTCCGGTCTCCC
DNA 2: TGGTGGCTACGACGGGATT
B6: ACACUGA (DNA:RNA)
RNA: B1 RNA with A26C, U27A, U28C, G29U, C30G
DNA 1: CAATCTGAATTCCGGTCTCCC
DNA 2: TGGTGGCTACGACGGGATT
B7: ACCCAAG (DNA:RNA)
RNA: B1 RNA with A26C, U27C, U28C, G29A, C30A, A31G
DNA 1: CAATCTGAATTCCGGTCTCCC
DNA 2: TGGTGGCTACGACGGGATT
B8: GAGCGCG (DNA:RNA)
RNA: B1 RNA with A25G, U27G, U28C, A31G
DNA 1: CAATCTGAATTCCGGTCTCCC
DNA 2: TGGTGGCTACGACGGGATT
B9: AGACGUA (DNA:RNA)
RNA: B1 RNA with A26G, U27A, U28C, C30U
DNA 1: CAATCTGAATTCCGGTCTCCC
DNA 2: TGGTGGCTACGACGGGATT

These binders were tested against T1, RBFOX1 RRM (assay: EMSA; HiTS-Eq, 1 nM pool, 10 min; buffer printed only for the single-RNA assays: 10 mM Tris pH 7.5, 150 mM NaCl, 3.4 mM EDTA, 0.001% NP-40, 30 C). Settings: tags: His6 N-terminal (pET28a); label: 5' 32P.
Outline: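 Relative association constants, normalised to the cognate motif, were derived by comparing read counts of each RNA species with those of the control reaction. The RNA sequenced was the free fraction, separated by 8% native PAGE after a 10 min equilibration in 50 µL of 1 nM 5′-radiolabelled RNA (7 randomized nucleotides) with increasing concentrations of purified wild-type or mutant RbFox RRM.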

| Binder | binding signal |
| --- | --- |
| B1 | 0.0136 KA relative to UGCAUGU |
| B2 | 0.0092 KA relative to UGCAUGU |
| B3 | 0.0136 KA relative to UGCAUGU |
| B4 | 0.0103 KA relative to UGCAUGU |
| B5 | 0.00813 KA relative to UGCAUGU |
| B6 | 0.00517 KA relative to UGCAUGU |
| B7 | 0.0029 KA relative to UGCAUGU |
| B8 | 0.0177 KA relative to UGCAUGU |
| B9 | 0.00585 KA relative to UGCAUGU |
